According to publication PMC10036327:
No constants are given. Whether binding was seen depends on the method and setting. In cells and extracts the contact can be indirect. Some entries that bind do so weakly or less than the wild type. Blank lines part the entries; values can stand above or below the substance they belong to.

Sequences of proteins named here, by UniProt entry; tags and fusion partners are left off. A change or cut given only in a name is not applied to a line headed by its entry.
UniProt Q13485: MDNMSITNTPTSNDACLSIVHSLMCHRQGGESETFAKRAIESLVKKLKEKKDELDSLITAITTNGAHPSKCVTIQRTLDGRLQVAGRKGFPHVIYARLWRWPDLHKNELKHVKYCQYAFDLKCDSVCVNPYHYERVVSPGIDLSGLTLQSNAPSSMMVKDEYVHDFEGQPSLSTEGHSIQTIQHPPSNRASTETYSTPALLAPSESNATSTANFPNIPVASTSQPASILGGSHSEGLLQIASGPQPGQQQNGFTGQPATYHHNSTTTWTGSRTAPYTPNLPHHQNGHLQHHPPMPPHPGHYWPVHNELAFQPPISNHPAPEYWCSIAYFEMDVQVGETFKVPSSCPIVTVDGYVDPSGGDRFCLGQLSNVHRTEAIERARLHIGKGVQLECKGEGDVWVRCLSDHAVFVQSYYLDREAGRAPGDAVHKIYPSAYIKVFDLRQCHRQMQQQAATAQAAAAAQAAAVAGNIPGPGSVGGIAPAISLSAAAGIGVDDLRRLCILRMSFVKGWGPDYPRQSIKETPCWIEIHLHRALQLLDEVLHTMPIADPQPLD
UniProt Q92793: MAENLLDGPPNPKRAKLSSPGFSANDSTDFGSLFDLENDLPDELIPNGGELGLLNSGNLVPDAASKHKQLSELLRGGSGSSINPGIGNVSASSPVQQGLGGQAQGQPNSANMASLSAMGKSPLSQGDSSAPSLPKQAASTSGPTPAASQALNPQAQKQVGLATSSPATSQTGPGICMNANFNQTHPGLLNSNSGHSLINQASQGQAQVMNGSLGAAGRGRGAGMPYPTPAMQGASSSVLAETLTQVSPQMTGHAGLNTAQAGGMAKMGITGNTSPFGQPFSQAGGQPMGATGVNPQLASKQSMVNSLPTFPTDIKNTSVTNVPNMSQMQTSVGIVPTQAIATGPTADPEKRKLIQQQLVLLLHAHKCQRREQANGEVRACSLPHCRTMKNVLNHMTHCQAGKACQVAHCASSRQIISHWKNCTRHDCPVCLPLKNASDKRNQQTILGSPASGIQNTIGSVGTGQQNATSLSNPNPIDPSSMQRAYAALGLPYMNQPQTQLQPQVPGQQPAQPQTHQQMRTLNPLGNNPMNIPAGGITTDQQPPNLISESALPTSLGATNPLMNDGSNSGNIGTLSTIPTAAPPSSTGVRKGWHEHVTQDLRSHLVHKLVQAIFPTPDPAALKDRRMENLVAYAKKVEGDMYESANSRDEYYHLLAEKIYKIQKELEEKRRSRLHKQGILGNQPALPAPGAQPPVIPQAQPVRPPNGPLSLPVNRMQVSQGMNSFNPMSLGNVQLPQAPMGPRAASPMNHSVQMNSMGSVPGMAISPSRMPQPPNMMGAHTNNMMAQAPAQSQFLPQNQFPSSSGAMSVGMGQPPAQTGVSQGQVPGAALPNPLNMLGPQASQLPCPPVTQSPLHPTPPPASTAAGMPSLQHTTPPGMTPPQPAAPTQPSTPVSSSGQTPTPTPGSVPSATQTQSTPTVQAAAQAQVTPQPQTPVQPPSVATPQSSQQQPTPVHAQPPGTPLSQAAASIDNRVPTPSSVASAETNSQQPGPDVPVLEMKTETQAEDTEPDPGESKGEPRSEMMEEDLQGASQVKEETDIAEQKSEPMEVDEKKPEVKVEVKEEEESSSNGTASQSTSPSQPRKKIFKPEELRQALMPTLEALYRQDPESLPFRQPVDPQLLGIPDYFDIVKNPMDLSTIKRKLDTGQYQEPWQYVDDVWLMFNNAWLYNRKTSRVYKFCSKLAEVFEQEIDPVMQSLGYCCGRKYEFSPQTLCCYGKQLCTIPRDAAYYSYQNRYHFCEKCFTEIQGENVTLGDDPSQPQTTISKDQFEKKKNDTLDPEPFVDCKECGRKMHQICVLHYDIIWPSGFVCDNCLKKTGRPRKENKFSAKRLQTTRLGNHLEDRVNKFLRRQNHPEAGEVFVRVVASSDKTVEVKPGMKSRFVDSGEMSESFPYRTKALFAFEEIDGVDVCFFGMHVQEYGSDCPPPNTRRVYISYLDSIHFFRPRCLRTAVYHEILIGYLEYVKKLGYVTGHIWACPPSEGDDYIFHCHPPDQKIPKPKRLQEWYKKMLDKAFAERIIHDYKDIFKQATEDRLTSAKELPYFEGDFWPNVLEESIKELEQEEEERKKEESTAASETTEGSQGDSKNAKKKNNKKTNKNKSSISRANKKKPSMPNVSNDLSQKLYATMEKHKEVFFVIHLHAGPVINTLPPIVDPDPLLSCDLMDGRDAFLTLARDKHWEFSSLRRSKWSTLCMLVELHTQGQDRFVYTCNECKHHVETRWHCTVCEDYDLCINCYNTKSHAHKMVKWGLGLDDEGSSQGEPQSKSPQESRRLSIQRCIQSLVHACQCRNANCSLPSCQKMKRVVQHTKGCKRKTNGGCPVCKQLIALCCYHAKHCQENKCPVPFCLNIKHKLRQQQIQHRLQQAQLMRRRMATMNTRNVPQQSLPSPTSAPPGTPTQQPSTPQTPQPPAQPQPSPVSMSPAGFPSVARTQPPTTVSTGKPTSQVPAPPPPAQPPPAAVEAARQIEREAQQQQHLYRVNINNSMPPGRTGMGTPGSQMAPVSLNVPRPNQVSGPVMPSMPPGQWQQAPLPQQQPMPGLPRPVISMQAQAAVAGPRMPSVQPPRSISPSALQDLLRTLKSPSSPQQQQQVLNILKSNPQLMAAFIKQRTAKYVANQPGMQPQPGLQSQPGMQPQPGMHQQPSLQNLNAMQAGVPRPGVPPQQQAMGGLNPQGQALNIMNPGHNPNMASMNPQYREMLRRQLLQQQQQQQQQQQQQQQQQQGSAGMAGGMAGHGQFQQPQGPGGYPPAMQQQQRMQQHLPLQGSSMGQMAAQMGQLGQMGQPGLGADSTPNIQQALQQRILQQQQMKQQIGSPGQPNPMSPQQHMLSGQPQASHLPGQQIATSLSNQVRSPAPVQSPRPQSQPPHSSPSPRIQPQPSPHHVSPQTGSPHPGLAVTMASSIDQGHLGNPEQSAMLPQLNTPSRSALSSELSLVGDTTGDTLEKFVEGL
UniProt Q15796: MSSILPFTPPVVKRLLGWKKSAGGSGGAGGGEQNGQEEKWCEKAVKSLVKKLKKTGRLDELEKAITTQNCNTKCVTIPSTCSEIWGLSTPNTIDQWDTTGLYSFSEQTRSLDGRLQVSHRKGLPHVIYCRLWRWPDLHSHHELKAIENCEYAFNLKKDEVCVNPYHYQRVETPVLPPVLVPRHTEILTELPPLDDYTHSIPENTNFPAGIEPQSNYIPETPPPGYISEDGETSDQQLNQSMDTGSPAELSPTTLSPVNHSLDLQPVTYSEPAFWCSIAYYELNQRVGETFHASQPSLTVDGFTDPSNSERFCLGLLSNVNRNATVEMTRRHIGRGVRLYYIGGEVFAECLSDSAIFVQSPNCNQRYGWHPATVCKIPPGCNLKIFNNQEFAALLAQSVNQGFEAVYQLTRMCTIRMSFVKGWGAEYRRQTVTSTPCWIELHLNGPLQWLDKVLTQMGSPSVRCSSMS
UniProt P84022: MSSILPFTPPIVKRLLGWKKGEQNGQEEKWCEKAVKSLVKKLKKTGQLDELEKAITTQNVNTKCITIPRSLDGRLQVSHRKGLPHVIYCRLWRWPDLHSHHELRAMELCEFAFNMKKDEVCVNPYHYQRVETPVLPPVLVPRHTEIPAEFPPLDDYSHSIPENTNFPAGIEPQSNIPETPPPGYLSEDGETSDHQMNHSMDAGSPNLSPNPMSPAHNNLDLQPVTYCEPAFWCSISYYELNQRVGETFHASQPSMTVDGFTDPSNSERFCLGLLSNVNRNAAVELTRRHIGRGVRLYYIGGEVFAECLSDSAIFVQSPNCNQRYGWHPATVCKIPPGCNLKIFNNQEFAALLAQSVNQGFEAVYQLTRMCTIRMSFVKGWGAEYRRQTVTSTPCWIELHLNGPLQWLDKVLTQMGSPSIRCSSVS
UniProt Q09472: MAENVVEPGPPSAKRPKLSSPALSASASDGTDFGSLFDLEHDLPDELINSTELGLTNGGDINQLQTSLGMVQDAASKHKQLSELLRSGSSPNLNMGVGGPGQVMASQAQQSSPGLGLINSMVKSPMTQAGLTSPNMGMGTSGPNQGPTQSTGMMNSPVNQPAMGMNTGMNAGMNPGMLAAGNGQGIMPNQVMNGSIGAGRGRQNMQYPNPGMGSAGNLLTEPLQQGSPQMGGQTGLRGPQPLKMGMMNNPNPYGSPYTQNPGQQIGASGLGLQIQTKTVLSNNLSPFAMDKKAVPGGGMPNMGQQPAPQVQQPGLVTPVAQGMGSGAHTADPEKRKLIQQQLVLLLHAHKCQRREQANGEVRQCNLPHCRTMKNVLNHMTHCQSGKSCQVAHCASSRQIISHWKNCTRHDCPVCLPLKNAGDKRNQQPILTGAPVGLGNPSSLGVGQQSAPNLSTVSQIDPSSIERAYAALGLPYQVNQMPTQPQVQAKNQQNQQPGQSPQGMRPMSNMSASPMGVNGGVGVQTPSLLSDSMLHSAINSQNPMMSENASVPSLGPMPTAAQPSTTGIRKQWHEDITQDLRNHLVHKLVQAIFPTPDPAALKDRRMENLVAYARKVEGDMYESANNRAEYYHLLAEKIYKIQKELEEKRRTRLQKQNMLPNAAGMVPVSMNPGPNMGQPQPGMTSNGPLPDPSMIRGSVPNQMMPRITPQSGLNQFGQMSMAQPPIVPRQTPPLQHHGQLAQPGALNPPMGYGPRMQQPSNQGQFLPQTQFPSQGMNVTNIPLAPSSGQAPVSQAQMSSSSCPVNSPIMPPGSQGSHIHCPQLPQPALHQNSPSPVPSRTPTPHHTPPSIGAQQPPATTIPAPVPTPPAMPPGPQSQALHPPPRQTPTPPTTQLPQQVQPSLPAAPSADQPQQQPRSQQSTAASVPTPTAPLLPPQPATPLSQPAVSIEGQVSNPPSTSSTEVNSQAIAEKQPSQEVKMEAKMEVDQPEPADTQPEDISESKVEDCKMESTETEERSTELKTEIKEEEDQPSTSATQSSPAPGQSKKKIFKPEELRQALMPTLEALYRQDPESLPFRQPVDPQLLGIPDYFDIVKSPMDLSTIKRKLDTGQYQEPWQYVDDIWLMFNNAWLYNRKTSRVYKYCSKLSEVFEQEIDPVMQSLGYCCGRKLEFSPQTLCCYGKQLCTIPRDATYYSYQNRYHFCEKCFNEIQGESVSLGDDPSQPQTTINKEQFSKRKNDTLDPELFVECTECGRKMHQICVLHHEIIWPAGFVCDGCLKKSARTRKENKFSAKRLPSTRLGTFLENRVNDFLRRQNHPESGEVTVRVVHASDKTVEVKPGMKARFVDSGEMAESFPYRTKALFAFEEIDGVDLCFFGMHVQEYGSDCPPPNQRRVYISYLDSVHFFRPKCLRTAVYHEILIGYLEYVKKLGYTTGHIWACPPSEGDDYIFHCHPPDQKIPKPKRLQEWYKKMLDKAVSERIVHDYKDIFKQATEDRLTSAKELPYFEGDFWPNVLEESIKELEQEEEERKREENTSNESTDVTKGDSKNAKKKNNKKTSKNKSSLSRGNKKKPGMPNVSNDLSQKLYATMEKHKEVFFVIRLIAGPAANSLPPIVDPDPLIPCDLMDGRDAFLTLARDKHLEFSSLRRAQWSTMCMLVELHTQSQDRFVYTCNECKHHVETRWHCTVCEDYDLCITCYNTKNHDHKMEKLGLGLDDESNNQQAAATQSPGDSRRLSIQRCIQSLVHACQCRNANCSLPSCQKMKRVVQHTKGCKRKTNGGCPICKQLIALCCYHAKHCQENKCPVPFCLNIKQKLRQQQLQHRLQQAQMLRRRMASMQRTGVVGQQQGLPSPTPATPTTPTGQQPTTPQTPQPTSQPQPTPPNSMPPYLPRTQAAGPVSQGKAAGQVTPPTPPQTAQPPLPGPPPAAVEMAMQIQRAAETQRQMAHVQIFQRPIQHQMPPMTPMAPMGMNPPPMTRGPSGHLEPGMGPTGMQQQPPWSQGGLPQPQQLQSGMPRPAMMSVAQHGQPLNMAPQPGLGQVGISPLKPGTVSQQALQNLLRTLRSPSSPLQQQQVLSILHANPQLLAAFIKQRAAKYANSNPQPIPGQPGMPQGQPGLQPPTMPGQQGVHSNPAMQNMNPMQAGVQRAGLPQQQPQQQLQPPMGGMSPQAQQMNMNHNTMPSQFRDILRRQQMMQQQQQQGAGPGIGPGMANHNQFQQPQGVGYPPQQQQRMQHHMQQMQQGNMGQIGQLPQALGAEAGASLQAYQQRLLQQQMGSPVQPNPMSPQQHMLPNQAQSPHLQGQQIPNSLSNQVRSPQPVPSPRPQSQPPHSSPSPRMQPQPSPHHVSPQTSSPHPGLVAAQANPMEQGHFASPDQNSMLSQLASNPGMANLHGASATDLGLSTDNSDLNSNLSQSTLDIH

Columns and labels:
FLAG-Smad4 [1] = target: FLAG-Smad4 (UniProt Q13485); assay: co-IP; co-IP of Smad4 variants with CBP (Supplementary Fig. 5h) and of the YF mutant with p300 (Supplementary Fig. 5i); cells and tags not shown
ABL1 [2] = target: ABL1 (UniProt P00519); assay: co-IP; HEK293T cells transiently transfected with tagged expression plasmids; lysates incubated with primary antibody (anti-FLAG as in Fig. 3a) and protein A Sepharose at 4 °C for 4 h; western blotting; in Fig. 5g with co-expressed FLAG-ABL1 or FLAG-ABL1-KD
[3] = target: FLAG-Smad4 YE mutant (Y195E/Y301E/Y322E) (UniProt Q13485); assay: as above
[4] = target: Smad4 YF mutant (Y195F/Y301F/Y322F) (UniProt Q13485); assay: co-IP; co-IP of Smad4 variants with CBP (Supplementary Fig. 5h) and of the YF mutant with p300 (Supplementary Fig. 5i); cells and tags not shown
FLAG-Smad4 [5] = target: FLAG-Smad4 (UniProt Q13485); assay: co-IP; HEK293T cells transiently transfected with tagged expression plasmids; lysates incubated with primary antibody (anti-FLAG as in Fig. 3a) and protein A Sepharose at 4 °C for 4 h; western blotting; in Fig. 5g with co-expressed FLAG-ABL1 or FLAG-ABL1-KD
MYC-Smad4 = MYC-Smad4 (UniProt Q13485); assay: as above
ABL1 [6] = target: ABL1 (UniProt P00519); assay: co-IP; domain mapping: Smad4 co-expressed individually with ABL1 deletion mutants, and ABL1 with Smad4 domains (Supplementary Fig. 3c-f); cells and tags not shown
[7] = target: Smad4 YE mutant (Y195E/Y301E/Y322E) stably expressed in Smad4-null HaCaT cells (UniProt Q13485); assay: co-IP; Smad4-null HaCaT cells stably expressing WT or YE mutant of Smad4, treated with TGF-β or SB431542; IP-western blotting
[8] = target: Smad4 WT stably expressed in Smad4-null HaCaT cells (UniProt Q13485); assay: as above
[9] = target: Smad4, endogenous in HaCaT cells (human (endogenous in HaCaT)) (UniProt Q13485); assay: co-IP; endogenous proteins, HaCaT cells with or without stable expression of ABL1, treated with TGF-β or SB431542; IP-western blotting
[10] = target: Smad4, endogenous in K562 cells (human (endogenous in K562)) (UniProt Q13485); assay: co-IP; endogenous proteins, K562 cells treated with Imatinib (0.5 μM), with TGF-β (2 ng/ml) or SB431542 (5 μM) as indicated; IP-western blotting
[11] = target: Smad4, endogenous in K562 cells (human (endogenous in K562)) (UniProt Q13485); assay: co-IP; endogenous proteins, K562 cell lysate, without Imatinib (Fig. 5i: TGF-β 2 ng/ml or SB431542 5 μM); IP-western blotting

- binding (FLAG-Smad4 [1]): binds
Substance: CBP (from UniProt Q92793 1-2442)

- binding (ABL1 [2]): binds
Substance: FLAG-Smad4 (from UniProt Q13485 1-552)

- binding [3]: binds
Substance: HA-Smad2 (from UniProt Q15796 1-467)

- binding [3]: binds
Substance: HA-Smad3 (from UniProt P84022 1-425)

- binding [4]: binds
- binding (FLAG-Smad4 [5]): binds
- binding (MYC-Smad4): binds
Substance: HA-p300 (from UniProt Q09472 1-2414)

- binding (ABL1 [6]): binds
Substance: MH2 domain of Smad4 (from UniProt Q13485 323-552) (domain or fragment)

- binding [7]: no binding
- binding [8]: binds
- binding [9]: binds
Substance: p300, endogenous in HaCaT cells (from UniProt Q09472 1-2414)

- binding [10]: binds
- binding [11]: binds weakly
Substance: p300, endogenous in K562 cells (from UniProt Q09472 1-2414)
